The results in this text go back to publication PMC4336329 (PLoS ONE, 2015).

The campaign covered roughly 310,000 compounds. About 2,200 (0.71%) showed an effect of 50% or more. Effects have a minus sign here. The list shows a part of the results.

Sequence of human ether-à-go-go-related gene (hERG) potassium channel (Q12809 whole entry, looked up): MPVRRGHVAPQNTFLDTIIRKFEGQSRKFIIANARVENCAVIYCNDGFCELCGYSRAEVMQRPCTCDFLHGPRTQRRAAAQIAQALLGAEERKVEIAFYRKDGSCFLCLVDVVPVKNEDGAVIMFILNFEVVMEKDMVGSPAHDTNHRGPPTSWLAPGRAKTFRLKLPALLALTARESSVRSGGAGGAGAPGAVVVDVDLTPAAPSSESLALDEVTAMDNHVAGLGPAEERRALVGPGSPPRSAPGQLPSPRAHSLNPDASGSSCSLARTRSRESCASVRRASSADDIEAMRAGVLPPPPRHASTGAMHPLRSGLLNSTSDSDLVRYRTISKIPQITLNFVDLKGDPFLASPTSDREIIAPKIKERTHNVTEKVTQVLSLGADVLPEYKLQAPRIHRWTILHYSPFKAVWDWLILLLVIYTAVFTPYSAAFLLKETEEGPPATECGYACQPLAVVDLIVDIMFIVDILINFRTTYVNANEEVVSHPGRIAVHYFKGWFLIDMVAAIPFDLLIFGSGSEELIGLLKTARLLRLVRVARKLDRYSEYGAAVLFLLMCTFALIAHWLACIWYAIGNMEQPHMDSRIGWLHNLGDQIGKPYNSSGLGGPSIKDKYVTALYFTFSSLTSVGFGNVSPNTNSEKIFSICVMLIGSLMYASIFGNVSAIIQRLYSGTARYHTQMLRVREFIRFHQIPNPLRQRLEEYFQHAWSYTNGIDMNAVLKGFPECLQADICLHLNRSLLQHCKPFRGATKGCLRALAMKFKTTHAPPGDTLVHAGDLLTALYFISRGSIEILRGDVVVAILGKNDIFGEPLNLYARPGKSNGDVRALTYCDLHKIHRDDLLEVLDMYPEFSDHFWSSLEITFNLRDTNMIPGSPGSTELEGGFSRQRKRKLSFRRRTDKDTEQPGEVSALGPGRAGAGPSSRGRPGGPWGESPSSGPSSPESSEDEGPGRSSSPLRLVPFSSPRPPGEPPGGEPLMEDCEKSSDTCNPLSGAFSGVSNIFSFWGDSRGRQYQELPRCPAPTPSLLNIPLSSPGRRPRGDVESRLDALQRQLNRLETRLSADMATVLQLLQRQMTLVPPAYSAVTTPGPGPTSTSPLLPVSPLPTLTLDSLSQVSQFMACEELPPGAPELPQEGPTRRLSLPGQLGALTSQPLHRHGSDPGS

The assay concerns the target human ether-à-go-go-related gene (hERG) potassium channel (human, UniProt Q12809). Briefly: primary screen, population patch clamp on CHO cells stably expressing hERG.
Consider `CCCc1nnc(SCC(=O)N2CCCC(C)C2)n1CCCOC` (stereo not drawn), for which the “hERG current change (%, negative = inhibition) at 1uM” value was found to be 7.87%.

With `Cc1cc(C(C)(C)C)ccc1OCCCCN1CCCC1`, the “hERG current change (%, negative = inhibition) at 1uM” value was 0.441%.

For `CC(C)(C)C(=O)OCC12CCC(O1)C1(C)C(=O)OCC21` (stereo not drawn), the “hERG current change (%, negative = inhibition) at 1uM” value was 26.6%.

Turning to `COC(=O)NC1CSCC1OC(=O)CCN1C(=O)c2ccccc2C1=O` (stereo not drawn), the “hERG current change (%, negative = inhibition) at 1uM” value is reported as 5.79%.

With `CCN(Cc1ccccc1)S(=O)(=O)c1ccc(C(=O)N(CCCN(C)C)c2nc3ccc(F)cc3s2)cc1.Cl`, the “hERG current change (%, negative = inhibition) at 1uM” value is listed as 16.1%.

`Cc1ccc(N=C2NC(=O)C(CC(=O)NCc3ccccc3)S2)cc1C` (stereo not drawn): the “hERG current change (%, negative = inhibition) at 1uM” value stood at 8.3%.

With `COCCCNC(=O)CCc1ccccc1`, the “hERG current change (%, negative = inhibition) at 1uM” value is listed as 18%.

Turning to `C=CCn1c(O)c(N=NC(=O)CNC(=O)Cc2ccccc2)c2ccccc21`, the “hERG current change (%, negative = inhibition) at 1uM” value is given as 11.1%.

As for `Cc1cccc(NC(=S)N(CCCN(C)C)Cc2cc3cc4c(cc3[nH]c2=O)OCO4)c1`, the “hERG current change (%, negative = inhibition) at 1uM” value was -11.8%.

Regarding `COc1cccc(NC(=O)CN(C)C(=O)c2cccc(S(=O)(=O)Nc3ccccc3OC)c2)c1`, the “hERG current change (%, negative = inhibition) at 1uM” value stood at 7.33%.

On to `O=C(Nc1ccc(F)cc1F)N1CCCC(c2nc(-c3ccc(F)cc3)no2)C1` (stereo not drawn), for which the “hERG current change (%, negative = inhibition) at 1uM” value came to 3.73%.

Consider `Cc1nnc(NC(=O)C(C)Oc2ccc3c(C)cc(=O)oc3c2)s1` (stereo not drawn), for which the “hERG current change (%, negative = inhibition) at 1uM” value amounted to 12.7%.

`Cc1ccc(C(C(=O)NC(C)(C)C)N(C(=O)c2csnn2)c2ccccc2F)o1` (stereo not drawn): the “hERG current change (%, negative = inhibition) at 1uM” value is given as -0.276%.

As to `COc1ccccc1NC(=O)CNS(=O)(=O)c1ccccc1`, the “hERG current change (%, negative = inhibition) at 1uM” value is on record as 3.69%.

On to `CCS(=O)(=O)Nc1ccc(Cc2ccc(NS(=O)(=O)CC)cc2)cc1`, for which the “hERG current change (%, negative = inhibition) at 1uM” value is listed as 0.871%.

Consider `CCN(CC(=O)NC1CCCC1)S(=O)(=O)c1ccc(F)cc1`, for which the “hERG current change (%, negative = inhibition) at 1uM” value is on record as 12.2%.

With `Cn1c(=O)c2c(nc(-c3ccccc3)n2C)n(Cc2ccccc2)c1=O`, the “hERG current change (%, negative = inhibition) at 1uM” value turned out to be 3.76%.

Regarding `COc1cc(CC(=O)OCC(=O)N2C(C)CCCC2C)cc(OC)c1OC` (stereo not drawn), the “hERG current change (%, negative = inhibition) at 1uM” value is given as 13.5%.

As to `CCCCCN1CC(O)=C(c2ccccc2)C1=N`, the “hERG current change (%, negative = inhibition) at 1uM” value came out at 9.11%.

For the compound `Oc1cccc(Nc2ccccc2)c1`, the “hERG current change (%, negative = inhibition) at 1uM” value was 9.51%.

Consider `Cc1cc(C(=O)N/N=C/c2cc([N+](=O)[O-])ccc2O)c2ccccc2n1`, for which the “hERG current change (%, negative = inhibition) at 1uM” value is 11.8%.

Regarding `Cc1cccc(C)c1NC(=O)COC(=O)c1cc[n+]([O-])cc1`, the “hERG current change (%, negative = inhibition) at 1uM” value amounted to 14%.

With `COc1ccc(C2CCCN2C(=S)Nc2ccccc2C)cc1OC` (stereo not drawn), the “hERG current change (%, negative = inhibition) at 1uM” value is 11.6%.

With `CCc1cccc(CC)c1-n1c(-c2cccnc2)n[nH]c1=S`, the “hERG current change (%, negative = inhibition) at 1uM” value worked out at 15.2%.

With `CC(=O)Nc1ccc(NC(=O)CCn2nnc3ccccc32)cc1`, the “hERG current change (%, negative = inhibition) at 1uM” value was -2.34%.

In the case of `O=C(CCCCn1c(=O)c2ccccc2n(Cc2ccccc2)c1=O)NC1CCN(Cc2ccccc2)CC1`, the “hERG current change (%, negative = inhibition) at 1uM” value is given as -22.6%.

In the case of `Cc1cc(C)n2c(SCc3cccs3)nnc2n1`, the “hERG current change (%, negative = inhibition) at 1uM” value is listed as 5.69%.

With `C=CCn1c(O)c(C(C)=NCCCn2ccnc2)c(=O)[nH]c1=O`, the “hERG current change (%, negative = inhibition) at 1uM” value was 12.1%.

With `COc1cccc(COC(=O)Nc2ccccc2F)c1`, the “hERG current change (%, negative = inhibition) at 1uM” value turned out to be 13%.

Take `CC(=O)c1cccc(NC(=O)c2ccc(N(Cc3ccccc3C)S(C)(=O)=O)cc2)c1`: the “hERG current change (%, negative = inhibition) at 1uM” value is listed as -3.8%.

For `O=C(O)Cc1ccc(NC(=O)C(c2ccccc2)c2ccccc2)cc1`, the “hERG current change (%, negative = inhibition) at 1uM” value was determined as 6.62%.

For the compound `CC(C(O)c1cc(=O)c(OCc2ccccc2)co1)[N+](=O)[O-]` (stereo not drawn), the “hERG current change (%, negative = inhibition) at 1uM” value is recorded as 16.8%.

In the case of `CCN1CCCC1CNC(=S)Nc1ccc(C(C)=O)cc1` (stereo not drawn), the “hERG current change (%, negative = inhibition) at 1uM” value is recorded as 9.33%.

Take `Oc1c(C=Nc2cccc3nsnc23)ccc2ccccc12`: the “hERG current change (%, negative = inhibition) at 1uM” value stood at 16.2%.

On to `COc1ccc(-c2nn(-c3ccccc3)cc2C(N)=O)cc1OC`, for which the “hERG current change (%, negative = inhibition) at 1uM” value is 4.36%.

In the case of `Cc1ccc(-c2noc(CN(C(=O)C(c3ccccc3)c3ccccc3)C(C)C)n2)cc1`, the “hERG current change (%, negative = inhibition) at 1uM” value turned out to be 13.9%.

Take `Cc1cccc(CN2CCN(CC(=O)NCc3cccs3)C2=O)c1`: the “hERG current change (%, negative = inhibition) at 1uM” value is -12.3%.

For `O=C(CCn1nnc2ccccc21)N1CCN(c2ccccc2)CC1`, the “hERG current change (%, negative = inhibition) at 1uM” value came to 8.73%.

`Cc1c(OC(C)C(=O)NC2CC(C)(C)NC(C)(C)C2)ccc2c3c(c(=O)oc12)CCC3` (stereo not drawn): the “hERG current change (%, negative = inhibition) at 1uM” value was determined as 10.6%.

Turning to `COc1ccccc1N1CCN(C(=O)c2ccc(Br)s2)CC1.Cl`, the “hERG current change (%, negative = inhibition) at 1uM” value is 4.94%.

For the compound `O=C(CSc1ncn[nH]1)N1N=C2/C(=C/c3ccco3)CCCC2C1c1ccco1` (stereo not drawn), the “hERG current change (%, negative = inhibition) at 1uM” value is 0.0596%.

Take `Cc1cc(C(=O)N2CCN(c3ccccc3O)CC2)c(C)o1`: the “hERG current change (%, negative = inhibition) at 1uM” value is reported as -4.3%.

As to `CS(=O)(=O)N1CCN(c2nc(-c3ccc(F)cc3)cs2)CC1`, the “hERG current change (%, negative = inhibition) at 1uM” value is on record as -21%.

In the case of `CCOc1nc(Nc2ccc(OC)cc2)nc(N2CCOCC2)n1`, the “hERG current change (%, negative = inhibition) at 1uM” value is given as 4.84%.

As for `COc1ccc(C(=O)Nc2nnc(SCC(=O)NC3CCCC3)s2)c(OC)c1`, the “hERG current change (%, negative = inhibition) at 1uM” value came out at 14.4%.
